The campaign covered roughly 45,000 compounds. About 200 (0.44%) were called active. Inconclusive results (about 7%) are left out. Calls come from the whole dose curve; as a rule, active = well fitted activation curve with a large enough effect; inconclusive = small, poorly fitted or top-dose-only effect; inactive = no such curve, though single readings can be large or run the other way. This is one part of the list.
test: qHTS of TDP-43 Inhibitors: NCGC Sytravon Library Screen; settings: yeast TDP-43 toxicity rescue, BacTiter-Glo growth, 24 h; series mostly up to 46.1 µM; growth rescue (activation): at the top concentration; note: 0% is about no effect; nearly all actives have a fitted effect of over 55% in size
In short: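 TDP-43-expressing yeast, pregrown in raffinose, seeded at OD600 0.02 in galactose medium with compound for 24 hr at 30 deg C. Growth read by BacTiter-Glo luminescence, so rescue of toxicity appears as activation.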

| SMILES | growth rescue (activation) |
| --- | --- |
| COc1ccccc1C(C)NCC(=O)Nc1ccccc1C(F)(F)F (stereo unspecified) | inactive: 6.51% |
| COc1ccc(C(=O)CSc2nnc(CN3CCCCC3)n2-c2ccc(Cl)cc2)cc1OC | inactive: 1.65% |
| CC(C)NC(=O)C1CCN(C2CCN(CC3CC=CCC3)CC2)CC1 (stereo unspecified) | inactive: 6.81% |
| CCOC(=O)C1(C)CCN1C(=O)Cc1ccc(OC)cc1 (stereo unspecified) | inactive: -5.57% |
| CN(CC(=O)Nc1ccc2c(c1)OCCO2)CC(=O)Nc1ccc(F)c(F)c1F | inactive: 1.13% |
| O=C(O)c1cccc(NC(=S)NC(NC(=O)c2ccco2)C(Cl)(Cl)Cl)c1 (stereo unspecified) | inactive: -2.51% |
| Cc1sc2nc(COC(=O)c3cccc(S(=O)(=O)N(C)c4ccccc4)c3)[nH]c(=O)c2c1C | inactive: 10.6% |
| Brc1ccc(-c2csc(N/N=C/c3cccnc3)n2)cc1 | inactive: 12.7% |
| CCN(CC)CC(=O)Nc1ccc([N+](=O)[O-])cc1 | inactive: -20% |
| CCOc1ccc(N(C(=O)CNC(=O)c2ccco2)C(C(=O)NC2CCCC2)c2ccncc2)cc1 (stereo unspecified) | inactive: -5.3% |
| Cn1c(NCCN2CCCC2)nc2cc(-c3ccccc3)sc2c1=O | inactive: 5.76% |
| COc1ccc(N(Cc2cc(=O)[nH]c3ccccc23)C(=O)CCl)cc1 | inactive: 3.57% |
| CN(c1ccc(C(=O)NCc2ccc3c(c2)OCO3)cc1)S(=O)(=O)c1ccccc1 | inactive: 18.6% |
| O=C(O)CC1S/C(=N/N=C/C2CC=CCC2)NC1=O (stereo unspecified) | inactive: -19.1% |
| CS(=O)(=O)N1CCN(c2ccc([N+](=O)[O-])cc2C(F)(F)F)CC1 | inactive: 26% |
| CC(=O)c1cccc(NC(=O)c2cc(S(=O)(=O)N3CCOCC3)cs2)c1 | inactive: 6.56% |
| CC(=O)Oc1cccc(/C=C2\Sc3ccccc3C2=O)c1 | inactive: -11.2% |
| CCn1c(NCc2ccccc2NS(=O)(=O)c2ccc(C)cc2)nc2ccccc21 | inactive: 12.1% |
| CC(=C/c1ccccc1)/C=N/NC(=O)c1ccccn1 | inactive: 29.4% |
| N/C(=N\OCc1ccc([N+](=O)[O-])cc1)c1ccccn1 | inactive: 12.9% |
| Cc1cc(C)c2oc(C(=O)NCCc3ccc(S(N)(=O)=O)cc3)cc(=O)c2c1 | inactive: 28.8% |
| CN1CCN(C(=O)c2ccc3c(c2)NC(=O)C(N2CCOCC2)S3)CC1 (stereo unspecified) | inactive: 10.9% |

| SMILES | growth rescue (activation) |
| --- | --- |
| CCOC(=O)c1sc(N2C(=O)C(O)=C(C(=O)c3ccco3)C2c2ccc(C)o2)nc1C (stereo unspecified) | inactive: 17% |
| O=C(CCSc1ccccc1)Nc1ccc(OCc2ccccc2)cc1 | inactive: 12.6% |
| O=C(CCNC(=O)c1ccc(Br)cc1)NNC(=O)c1ccccc1 | inactive: -9.16% |
| COc1ccc(C(C(=O)NCC2CCCO2)N(C(=O)CNC(=O)c2cccs2)c2ccc(C(C)=O)cc2)cc1OC (stereo unspecified) | inactive: -4.65% |
| O=C(CSC(=S)N1CCCCC1)Nc1ncc2c(n1)CC(c1ccco1)CC2=O (stereo unspecified) | inactive: 4.28% |
| CCN1/C(=C2\SC(=S)N(Cc3ccccc3)C2=O)Sc2ccccc21 | inactive: 17.8% |
| O=C(Nc1cccc(S(=O)(=O)NC2=NCCCCC2)c1)c1cc(-c2ccccc2Cl)nc2ccccc12 | inactive: 16.4% |
| COc1ccc(C(=O)NC2CC2)cc1OC1CCN(Cc2ccc(F)cc2F)CC1 | inactive: -7.4% |
| NS(=O)(=O)c1ccc(NC(=O)COC(=O)Cc2ccc(Cl)cc2)cc1 | inactive: 5.82% |
| O=C(O)c1ccccc1NS(=O)(=O)c1ccc(NNC(=S)Nc2ccc(OC(F)F)cc2)c([N+](=O)[O-])c1 | inactive: -18.5% |
| CN(Cc1nc(Cc2cccc(C(F)(F)F)c2)no1)C1CC(C)(C)NC(C)(C)C1 | inactive: 11.8% |
| CC(=O)C1=C(C)NC(SCC(N)=O)=C(C#N)C1c1ccco1 (stereo unspecified) | inactive: -1.01% |
| O=C(CSc1nnc(SCc2ccccc2)s1)N/N=C/C=C/c1ccco1 | inactive: 15.5% |
| CSc1nc(NS(=O)(=O)c2cc(Br)ccc2Br)cc(=O)[nH]1 | inactive: -8.5% |
| COc1ccc(CC(=O)N2CCC(C)(C(=O)NS(=O)(=O)C3CC3)C2)cc1OC (stereo unspecified) | inactive: -3.35% |
| COC(=O)c1ccc(S(=O)(=O)NNC(=O)COc2ccc(C)cc2)cc1 | inactive: 0.238% |
| CN(C)c1ccc(/C=C/c2nc3ccccc3c(=O)n2-c2ccc(C(=O)O)cc2)cc1 | inactive: -5.61% |
| CN1CCN(C(c2ccc(Br)cc2)c2cc(Cl)c3cccnc3c2O)CC1 (stereo unspecified) | inactive: -91.5% |
| CCCN1C(=O)NC2(O)C(=O)c3ccccc3C12O (stereo unspecified) | inactive: 2.46% |
| COc1ccc(CCNC(=O)c2c(N)no[n+]2[O-])cc1OC | inactive: 21.7% |
| COCC(=O)NC1CCN(S(=O)(=O)c2cccc(C(C)=O)c2)CC1 | inactive: -0.975% |
| CS(=O)(=O)N(CCc1ccccc1)CC(=O)N1CCCC1 | inactive: 8.27% |

| SMILES | growth rescue (activation) |
| --- | --- |
| COc1cc([N+](=O)[O-])ccc1NC(=O)Cc1ccc(F)cc1 | inactive: -8.51% |
| Nn1cc(-c2ccccc2)nc1SCC(=O)N1CCN(S(=O)(=O)c2ccc3ccccc3c2)CC1 | inactive: 0.436% |
| O=C(NCCCN1CCOCC1)c1ccc(NC(=O)C2COc3ccccc3O2)cc1 (stereo unspecified) | inactive: 9.62% |
| O=C(O)CC1(CC(=O)Nc2ccc(C(F)(F)F)cc2)CCCC1 | inactive: 8.56% |
| N#CC(=C(O)CN1CCN(c2ccccc2F)CC1)c1nc(-c2ccc(Cl)cc2)cs1 | inactive: 5.76% |
| COc1ccccc1C(=O)NCC(=O)N/N=C/c1ccc2c(c1)OCO2 | inactive: 18.7% |
| Cc1ccccc1C(=O)NC(C)c1ccc2c(c1)CCCC2 (stereo unspecified) | inactive: 22.4% |
| C/C(CC(=O)Nc1cc(C)ccn1)=N\NC(=O)c1ccncc1 | inactive: -11.9% |
| Cc1ccc(Cl)cc1NC(=O)Cn1cc(C(F)(F)F)cc(Cl)c1=O | inactive: 3.02% |
| CN(C)S(=O)(=O)N1CCN(c2ccc([N+](=O)[O-])cc2)CC1 | inactive: 5.23% |
| Cc1ccc(-c2nc(CSc3nc4ccccc4c(=O)n3CCO)cs2)cc1 | inactive: -19.8% |
| CC(=O)c1ccc(NC(=O)NCc2ccc(F)cc2)cc1 | inactive: 12.3% |
| O=C(O)CC(Cc1ccccc1)C(=O)Nc1ccc([N+](=O)[O-])cc1 (stereo unspecified) | inactive: 9.55% |
| C=C(C)CN(CC)Cc1c(C(=O)N(C)CCCC)nc2ccccn12 | inactive: 6.11% |
| COCCN1C(=O)c2[nH]nc(-c3ccccc3O)c2C1c1ccc(OC)cc1 (stereo unspecified) | inactive: 6.36% |
| O=C(OCC(=O)N1CCCCC1)c1ccc(OC(F)(F)F)cc1 | inactive: 11.2% |
| CCCOC(=O)Nc1cc(OC)ccc1[N+](=O)[O-] | inactive: 24.6% |
| CSc1ccc(OC2(C)CCN(Cc3cc4ccccc4o3)C2)cc1 (stereo unspecified) | inactive: 8.96% |
| COC(=O)c1cc2oc3ccccc3c2n1Cc1c(F)cccc1Cl | inactive: -10.9% |
| COc1cccc(NC(=O)CNC(=O)c2ccc(OC)c(OC)c2)c1 | inactive: -12.2% |
| Cc1ccc(-c2nn(-c3ccccc3)cc2C(=O)N2CCOCC2)cc1C | inactive: 12.1% |
| COCCCNC(=O)CCCCCNS(=O)(=O)c1ccc(Br)cc1 | inactive: -5.31% |

Reference: PubChem BioAssay AID1347073 (National Center for Advancing Translational Sciences (NCATS), 2019)
